Test results reported in PubChem BioAssay AID504332 (National Center for Advancing Translational Sciences (NCATS), 2011).
Several values for one entry are separate records, joined by “and”; a condition that tells them apart may be missing. Identical values can stand only once. The whole screen tested about 350,000 compounds, of which about 31,000 (8.9%) were called active. The shares of active, inactive and inconclusive entries below differ from those in the screen. Calls follow the shape of the dose curve; as a rule, active = well fitted inhibition curve with a large enough effect; inconclusive = small, poorly fitted or top-dose-only effect; inactive = no such curve, though single readings can be large or run the other way. Where the call is inconclusive, the potency comes from a doubtful curve fit. Some compounds were tested as several samples or in several runs, with calls that do not always agree.

molecular target: Histone-lysine N-methyltransferase EHMT2 (Homo sapiens) (UniProt Q96KQ7); assay: qHTS Assay for Inhibitors of Histone Lysine Methyltransferase G9a; settings: G9a H3K9 monomethylation, AlphaScreen, 2 h; activity, negative = inhibition: at 59 µM (top of the series) unless noted; also: nearly all actives have a fitted effect of over 75% in size
Sequence of UniProt Q96KQ7 (Q96KQ7 whole entry, looked up): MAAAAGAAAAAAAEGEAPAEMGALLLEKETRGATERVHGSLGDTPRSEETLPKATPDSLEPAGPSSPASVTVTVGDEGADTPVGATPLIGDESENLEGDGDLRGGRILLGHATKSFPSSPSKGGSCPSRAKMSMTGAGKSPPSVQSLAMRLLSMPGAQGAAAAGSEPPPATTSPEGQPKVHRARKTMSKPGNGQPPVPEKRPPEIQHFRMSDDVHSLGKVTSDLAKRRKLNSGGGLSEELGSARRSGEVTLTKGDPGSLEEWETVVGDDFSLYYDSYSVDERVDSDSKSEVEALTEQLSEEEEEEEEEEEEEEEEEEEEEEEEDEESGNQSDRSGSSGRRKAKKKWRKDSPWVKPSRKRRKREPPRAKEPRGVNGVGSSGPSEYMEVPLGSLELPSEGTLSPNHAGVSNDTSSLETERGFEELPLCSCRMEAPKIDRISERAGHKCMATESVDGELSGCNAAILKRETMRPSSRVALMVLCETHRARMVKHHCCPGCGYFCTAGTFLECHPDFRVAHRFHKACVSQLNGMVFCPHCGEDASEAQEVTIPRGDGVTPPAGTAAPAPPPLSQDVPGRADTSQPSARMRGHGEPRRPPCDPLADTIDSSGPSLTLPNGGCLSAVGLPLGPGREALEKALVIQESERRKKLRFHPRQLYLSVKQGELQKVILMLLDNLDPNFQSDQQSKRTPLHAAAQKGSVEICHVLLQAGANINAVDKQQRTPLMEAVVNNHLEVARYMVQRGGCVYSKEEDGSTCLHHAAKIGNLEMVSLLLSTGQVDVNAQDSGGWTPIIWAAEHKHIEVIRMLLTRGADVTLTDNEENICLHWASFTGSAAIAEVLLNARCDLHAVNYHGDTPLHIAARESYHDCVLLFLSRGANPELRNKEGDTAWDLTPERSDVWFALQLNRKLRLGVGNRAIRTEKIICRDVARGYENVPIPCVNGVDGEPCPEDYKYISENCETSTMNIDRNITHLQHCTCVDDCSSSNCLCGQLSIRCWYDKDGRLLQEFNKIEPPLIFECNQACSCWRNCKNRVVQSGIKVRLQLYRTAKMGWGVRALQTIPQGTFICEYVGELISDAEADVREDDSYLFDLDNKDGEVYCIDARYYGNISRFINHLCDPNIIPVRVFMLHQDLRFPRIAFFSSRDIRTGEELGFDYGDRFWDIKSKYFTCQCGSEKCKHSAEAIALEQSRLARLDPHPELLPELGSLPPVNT
Procedure, shortened: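 Step 1: enzyme (final 20 nM) with compound, 15 min RT. Step 2: substrate peptide 500 nM and SAM 20 uM, 2 h RT. Step 3: anti-H3K9me1 antibody and AlphaScreen beads, 10 min, then plate read.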
% is scaled to controls: 0 for no effect and ±100 for the full control effect; potency is read from the fitted curve at half-maximal effect; tags tell the direction and shape of the fitted curve.

Compound | Potency | activity, negative = inhibition
O=C(COc1ccc(Cl)cc1)Nc1nnc(-c2ccco2)o1 | inactive | 
CC(=O)c1ccc(NC(=O)c2ccc(N3C(=O)c4cccnc4C3=O)cc2)cc1 | inconclusive: 79.4 µM [inhibitor, single point] | 
COc1ccc(S(=O)(=O)n2nc(OC(=O)c3ccco3)cc2N)cc1 |  | inconclusive: -66.8% [inhibitor]
O=C(O)COc1ccc(/C=C/c2ccc3cccc([N+](=O)[O-])c3n2)cc1 | active: 28.2 µM | 
CC1Cc2cc(/C(O)=C3/C(=O)C(=O)N(Cc4cccnc4)C3c3cccc(O)c3)ccc2O1 (stereo not drawn) | inconclusive: 79.4 µM [inhibitor, single point] | 
CCc1ccc([C@@H]2CC=C(C(=O)O)[C@H](c3ccc(F)cc3)N2S(=O)(=O)c2ccc(C)cc2)cc1 |  | inactive: 21.2% [at 2.33 µM]
CCN(c1ccccc1)S(=O)(=O)c1ccc(Cl)c(NC(=O)CN2CCN(C)CC2)c1 | inconclusive: 35.5 µM [inhibitor, single point] | 
COc1ccc(C2C3=C(CC(C)(C)CC3=O)Nc3c2c(=O)n(C)c(=O)n3C)cc1OC (stereo not drawn) |  | inactive: 26.5% [at 12.7 µM]
COc1ccccc1/C=N/Nc1cc(N(C)C)nc(N(C)C)n1 | inconclusive: 79.4 µM [inhibitor, single point] | 
O=[N+]([O-])c1c(C(Cl)Cl)nn(-c2ccccc2)c1N1CCCC1 | inconclusive: 22.4 µM [inhibitor, single point] | 
COC1=C2C[C@H](C)C[C@H](OC)[C@H](O)[C@@H](C)/C=C(/C)[C@H](OC(N)=O)[C@@H](OC)/C=C\C=C(\C)C(=O)NC(=CC1=O)C2=O | inconclusive: 15.8 µM [inhibitor, partial curve] | 
NS(=O)(=O)c1ccc(NC(=S)NC(=O)c2ccc(-c3ccccc3)cc2)cc1 | inconclusive: 89.1 µM [inhibitor, single point] | 
CCCc1cc(C(=O)Nc2ccc(C(=O)c3ccccc3)cc2)n(C)n1 | inactive | 
COc1ccccc1C(=O)N1CCN(Cc2cc(=O)oc3cc(C)ccc23)CC1 | inactive | 
FC(F)Oc1ccc(/C=N/c2c(-c3ccc(OC(F)F)cc3)nc3n2CCS3)cc1 | inconclusive: 31.6 µM [inhibitor, single point] | 
COc1ccc(-c2ccc(/C=C3\C(=O)N(c4ccccc4)N=C3c3ccccc3)o2)c([N+](=O)[O-])c1 | active: 7.08 µM | 
Cc1ccc(NC2CCCN(C(=O)c3ccccc3-c3ncc[nH]3)C2)cc1C (stereo not drawn) | inconclusive: 50.1 µM [inhibitor, single point] | 
CCOC(=O)c1ccc(S(=O)(=O)N2CCN(CC(O)COc3ccc(C#N)cc3)CC2)cc1 (stereo not drawn) | active: 35.5 µM | 
N#CC1=C(SCC(=O)NC2CC2)NC(=O)C(C#N)C12CCCCC2 (stereo not drawn) | inactive | 
O=C(NC(=S)NC1CCCCC1)c1ccccc1 | inconclusive: 39.8 µM [inhibitor, partial curve, poor fit] | 
CCC(C(=O)OCC(=O)NC(=O)NC(C)(C)C)c1ccccc1 (stereo not drawn) | inactive | 
N#Cc1ccc(CN2CCN(C(=O)CCNS(=O)(=O)c3ccc(F)c(Cl)c3)CC2)cc1 | inconclusive: 35.5 µM [inhibitor, single point] | 
Fc1ccc(-c2n[nH]c(=S)n2Cc2ccccc2)cc1 | inconclusive: 1.41 µM [inhibitor, single point] | 

Compound | Potency | activity, negative = inhibition
Cc1ccc(-n2c(SCC3CCCCO3)nnc2-c2ccco2)cc1 (stereo not drawn) |  | inconclusive: -60.1% [inhibitor]
Cc1nn(CC(C)C)c2sc(C(=O)NC3CC(C)(C)NC(C)(C)C3)cc12 | inconclusive: 89.1 µM [inhibitor, single point] | 
CCCNC(=O)Cn1nc(-c2ccc(F)cc2)c2cnc3ccc(F)cc3c21 | inactive | 
Cc1cc(C)n2cnnc2n1 | inactive | 
CCCc1cc(-c2ccc(O)c(OCC)c2)c(C#N)c(N)n1 |  | inactive: 5.49% [at 12.7 µM]
CC(C)(C)c1ccc(/C=N/NC(=S)Nc2cccnc2)cc1 | inconclusive: 44.7 µM [inhibitor, partial curve, poor fit] | 
CC(=O)c1c(C)[nH]c(C(=O)OCC(=O)Nc2nnc(-c3ccccc3)o2)c1C | inconclusive: 1.12 µM [inhibitor, partial curve, poor fit] | 
O=C(NCCc1cccnc1)C1CCC(=O)N(Cc2cccc(C(F)(F)F)c2)C1 (stereo not drawn) | inconclusive: 79.4 µM [inhibitor, single point] | 
Cc1cc([N+](=O)[O-])nn1CC(=O)Nc1nc2ccccc2s1 | inconclusive: 79.4 µM [inhibitor, partial curve, poor fit] | 
O=C(NCc1ccccc1)c1c[nH]c2ccc(S(=O)(=O)Nc3ccc4c(c3)OCCO4)cc2c1=O | inconclusive: 50.1 µM [inhibitor, partial curve, poor fit] | 
CC(=O)Nc1nnc(SCC(=O)NC2CCCC2)s1 | inactive | 
Cc1cc(C(=O)NNC(=O)c2ccc(C)c([N+](=O)[O-])c2)c(C)o1 | inactive | 
COCCn1c(=O)c(-c2ccc(Cl)cc2)nc2cnc(OCc3ccccc3)nc21 |  | inactive: -4.11% [at 0.501 µM]
CCC(C)NC(=O)c1cccc(NC(=O)c2nsc3ccccc23)c1 (stereo not drawn) | inactive | 
Cc1cc(C)c(C(=O)COC(=O)c2ccc([N+](=O)[O-])o2)cc1C | inconclusive: 39.8 µM [inhibitor, full curve, poor fit] | 
O=C(Cn1nc(-c2ccccc2)c2ccccc2c1=O)Nc1ccc(F)cc1 | inconclusive: 70.8 µM [inhibitor, partial curve, poor fit] | 
CC1Cn2c(nc3sc4c(c3c2=O)CCC4)N1CCO (stereo not drawn) | inconclusive: 44.7 µM [inhibitor, partial curve] | 
Cc1cc(OCCOCCN2CCCC2)ccc1C(C)C | active: 20 µM | 
O=C(CSc1nnc(Cn2c(=O)sc3ccccc32)n1-c1ccccc1)NCC1CCCO1 (stereo not drawn) | inconclusive: 5.01 µM [inhibitor, single point] | 
Cc1cc(C(=O)N/N=C2\CC(=O)c3ccccc32)c(C)n1-c1ccc(F)cc1 | active: 50.1 µM | 
CCN(Cc1ccccc1)S(=O)(=O)c1ccc2c(c1)CC(C)N2C(=O)C1CCC1 (stereo not drawn) | inactive | 
CCOCCCNC(=O)C1CCN(S(=O)(=O)c2cc(Br)cc3c2N(C(=O)CC)CC3)CC1 | inactive | 
CCOC(=O)c1nc(C)nc(Sc2n[nH]c(-c3ccccc3)n2)c1C | inconclusive: 89.1 µM [inhibitor, single point] | 

Compound | Potency | activity, negative = inhibition
Cc1cccc(-c2c(O)cc(=O)[nH]c2Cl)c1 | inactive | 
CCN(c1ccccc1)S(=O)(=O)c1cccc(C(=O)NCc2ccccc2CN2CCOCC2)c1 | inconclusive: 1.41 µM [inhibitor, single point] | 
Cc1cccc(N=Cc2cc3c(cc2[N+](=O)[O-])OCO3)c1 |  | inactive: -4.75% [at 0.501 µM]
Cc1ccc(N2C(=O)CC(Sc3nccc(C)n3)C2=O)cc1 (stereo not drawn) | inconclusive: 89.1 µM [inhibitor, single point] | 
Cc1c(-n2c(O)c(C3=c4ccccc4=NC3=O)sc2=S)c(=O)n(-c2ccccc2)n1C | active: 44.7 µM | 
CC(C)(C)c1ccc(Cn2c(=N)n(CC(O)c3ccco3)c3ccccc32)cc1 (stereo not drawn) | inconclusive: 44.7 µM [inhibitor, partial curve] | 
Oc1ccc(/C=C/c2cc(O)cc(O)c2)cc1 | inactive and active: 7.94 µM | 
CN(C)c1ccc(C2Nc3ccccc3C(=O)N2CCCN2CCOCC2)cc1 (stereo not drawn) | inconclusive: 79.4 µM [inhibitor, single point] | 
COCCCn1c(SCC(=O)NNC(=O)c2cccc(O)c2)nnc1-c1ccncc1 | inactive | 
COC(=O)[C@@]1(Cc2ccc(F)cc2)[C@H]2c3cc(C(=O)N4CCCC4)n(CCO)c3C[C@H]2CN1C(=O)c1ccccc1 | inconclusive: 79.4 µM [inhibitor, single point] | 
CCN(C(=O)COc1ccccc1C(=O)NCc1ccccc1)C1CCS(=O)(=O)C1 (stereo not drawn) | inconclusive: 7.08 µM [inhibitor, single point] | 
Cc1ccc2c(c1)N(CCC(=O)NCc1ccccc1Cl)C(=O)CO2 | inactive | 
CCOC(=O)CNC(=O)CSc1nnc(NC(=O)c2ccc(S(=O)(=O)N3CCOCC3)cc2)s1 | inconclusive: 50.1 µM [inhibitor, single point] | 
CCOC(=O)N1CCN(C(=O)/C(=C/c2cccc3ccccc23)NC(=O)c2ccc(OC)c(OC)c2)CC1 | inconclusive: 89.1 µM [inhibitor, single point] | 
CC(=O)N1CCCC1C(=O)O (stereo not drawn) |  | inactive: -44.3% [at 2.33 µM]
COc1ccc(N/C(C)=C/C(=S)Nc2ccccc2)cc1 | inactive | 
COc1ccc(NC(=O)c2c(NC(=O)c3ccc(Br)cc3)sc3c2CCCC3)cc1 | inconclusive: 20 µM [inhibitor, single point] | 
O=C(CCCN1C(=O)/C(=C/c2cccc(Br)c2)SC1=S)NCCCN1CCOCC1 | active: 44.7 µM | 
O=C(Nc1cccc(NC(=O)c2ncn[nH]2)c1)c1cccc(Cl)c1 | inconclusive: 70.8 µM [inhibitor, partial curve, poor fit] | 
Cc1cc2c(c(SCC(=O)NCc3ccccc3Cl)n1)C(=O)OC2 | inconclusive: 79.4 µM [inhibitor, partial curve, poor fit] | 
CN(C)Cc1c(O)ccc2c1O/C(=C\C=C\c1ccccc1)C2=O | inconclusive: 28.2 µM [inhibitor, partial curve, poor fit] | 
Cc1nnc(NC(=O)CSc2ccc(-c3ccco3)nn2)s1 | active: 25.1 µM | 
